Assay results: the supplement of paper PMC3334620
Whole data set: some 33,000 sequences, median “E-score (-0.5 to 0.5)” near -0.011, cut for the highest 2% near 0.28. The list shows a part of the results.

Target: T1, Gcr1 (UniProt P07261)
T1 sequence: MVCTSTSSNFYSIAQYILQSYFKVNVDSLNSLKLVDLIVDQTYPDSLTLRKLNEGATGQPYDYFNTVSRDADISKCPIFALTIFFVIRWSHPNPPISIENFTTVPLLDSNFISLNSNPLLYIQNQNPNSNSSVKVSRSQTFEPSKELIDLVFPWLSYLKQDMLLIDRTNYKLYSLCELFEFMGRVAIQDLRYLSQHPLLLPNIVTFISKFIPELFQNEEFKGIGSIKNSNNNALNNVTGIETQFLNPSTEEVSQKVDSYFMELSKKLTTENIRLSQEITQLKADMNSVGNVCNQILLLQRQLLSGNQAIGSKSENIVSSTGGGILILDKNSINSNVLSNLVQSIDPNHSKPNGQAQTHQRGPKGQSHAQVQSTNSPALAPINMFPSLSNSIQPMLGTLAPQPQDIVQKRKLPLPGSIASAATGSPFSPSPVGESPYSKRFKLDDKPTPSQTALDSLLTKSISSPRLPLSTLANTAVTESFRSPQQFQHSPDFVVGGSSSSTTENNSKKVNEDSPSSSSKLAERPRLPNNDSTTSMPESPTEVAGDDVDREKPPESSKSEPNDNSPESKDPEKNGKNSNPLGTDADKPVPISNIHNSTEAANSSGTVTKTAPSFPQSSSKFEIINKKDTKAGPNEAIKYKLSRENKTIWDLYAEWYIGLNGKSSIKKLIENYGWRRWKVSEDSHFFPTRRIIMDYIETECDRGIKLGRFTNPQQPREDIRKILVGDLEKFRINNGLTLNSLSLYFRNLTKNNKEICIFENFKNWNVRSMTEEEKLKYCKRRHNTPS
Test: PBM E-score (8-mer binding enrichment) (E-score (-0.5 to 0.5)); higher = stronger / more preferred TF binding; most listed sequences are background and not binding sites
Conditions: protein concentration: 100 nM; construct: GST-full length
In short: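 Detection of bound protein used fluorescent anti-GST, with scans normalised by masliner. The proteins were GST-tagged yeast transcription factors applied at about 100-200 nM to universal all-10-mer Agilent arrays made double-stranded by primer extension. Each ungapped eight-base word, pooled with its reverse complement, was scored with an E-score from the Universal PBM Analysis Suite.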

| Sequence | PBM E-score |
| --- | --- |
| CTGTTAGA | 0.198 |
| CTTCCTAC | 0.18 |
| GGATAGCA | 0.0491 |
| GGTCAGGA | 0.199 |
| GGGTCTAC | -0.21 |
| ACCTAAAT | 0.175 |
| CACGGATC | -0.0393 |
| GCACCTGC | -0.0521 |
| GAACCAGC | 0.102 |
| ATAGTGTG | 0.106 |
| CTAACTTA | 0.0766 |
| GACTACAC | -0.0357 |
| AATGATAG | -0.054 |
| ATCGTTTG | -0.0576 |
| GCCAAAGC | -0.0657 |
| ACCCTAAC | -0.00452 |
| GTGAGTGA | -0.0517 |
| ACTAAGCG | -0.0139 |
| ATCGCAGA | -0.0688 |
| CGTGCCCA | 0.0649 |
| TACGGAAA | 0.0785 |
| AACATCAG | 0.0441 |

| Sequence | PBM E-score |
| --- | --- |
| CACGGCAA | -0.0534 |
| CACAGGGC | 0.0271 |
| AAAGCCAT | -0.34 |
| CGCATTCC | 0.248 |
| ATCTCAGC | 0.043 |
| TACCGACA | 0.0319 |
| AAATGGTC | -0.0945 |
| CCCCACGC | 0.114 |
| ATGAGCCA | -0.249 |
| CGCCGCTC | 0.0668 |
| ATGATATC | -0.165 |
| CAGACGGG | -0.257 |
| AAATCCCG | -0.117 |
| AGGATTGC | 0.009 |
| TGATTGCA | -0.0307 |
| ACCCGCAC | -0.117 |
| CAGGGATC | -0.0384 |
| AGGACTCG | -0.212 |
| GACAAATA | 0.104 |
| ACACAATC | -0.162 |
| ATCGACCA | -0.0614 |
| CGAGAATC | 0.0803 |

| Sequence | PBM E-score |
| --- | --- |
| CGTCTAGC | 0.0268 |
| AATAAGAC | -0.0603 |
| AAGCCCGA | 0.0664 |
| CCCGCCTA | 0.112 |
| GGATTAAC | -0.214 |
| AAGTTCGG | -0.0193 |
| AAGAGATG | -0.143 |
| CTGGACCA | -0.134 |
| CACTATTC | 0.0919 |
| AAGGATGA | -0.116 |
| CATGCACG | -0.314 |
| ACGTTGAA | 0.11 |
| ATGCAACC | 0.0732 |
| GCTACAAA | 0.165 |
| TGTCAGAA | -0.176 |
| AGAATTCC | 0.164 |
| AGACGTTA | -0.0329 |
| GACCTTGA | -0.0333 |
| AAACATCA | -0.0583 |
| AGGTAGGG | 0.0437 |
| ACTTCGAG | 0.196 |
| ATCGGCTC | 0.00312 |

| Sequence | PBM E-score |
| --- | --- |
| ACACTTGG | -0.091 |
| GGTGCCAA | 0.27 |
| GATAGTTA | 0.041 |
| AATTCGAA | 0.0943 |
| CTGGTCGA | -0.3 |
| AGGAGCAA | -0.132 |
| CATGGATC | -0.14 |
| AGTATGCC | -0.208 |
| CTAGCTCA | -0.115 |
| CCGCAAAG | -0.0268 |
| GCCCGATA | 0.0461 |
| CACGTGAG | -0.123 |
| GCACATAC | -0.11 |
| ACGTCTCA | -0.301 |
| ACGGTTTC | -0.18 |
| GAAGGCAA | -0.00722 |
| AAGATATG | 0.0193 |
| ACCTAGCA | -0.0493 |
| CCAAAGGC | -0.185 |
| TCCGAGCA | 0.268 |
| ACAGACGA | 0.00488 |
| AATGCGAT | 0.0438 |

| Sequence | PBM E-score |
| --- | --- |
| AATCCAGG | 0.182 |
| CGTAGTAA | -0.114 |
| AGGGCCAA | -0.136 |
| GAGTGGAA | 0.316 |
| CCGTCACG | -0.00852 |
| ACGTCAGC | -0.0491 |
| GCTATGAC | -0.116 |
| AGCCAATC | -0.0617 |
| CTGAGTTA | -0.23 |
| AACCGCGG | -0.131 |
| GCCTGCCC | -0.227 |
| TATTATGA | 0.148 |
| TGGTACAA | 0.034 |
| ACTAATCC | 0.193 |
| ATTGGATC | 0.193 |
| CGGGAGGC | 0.235 |
| TAGGCATA | -0.0772 |
| GCATTGGC | -0.187 |
| GCAATGTA | -0.0536 |
| ACCCCTGC | -0.205 |
| CGAATTTA | 0.037 |
